In assay [1] the test system is influenza virus A/Puerto Rico 8/34 strain. Particulars: 14-day i.p. administration.
For assay [2] the test system is unchanged. Kind of assay: Biochemical parameters in peripheral blood, mouse model of influenza infection, Day 7. Particulars: Day 7 after infection, FIG. 8; for blood glucose level / blood β-hydroxybutyric acid level: KIS7 2.8 mg/kg/day, DCA 56 mg/kg/day i.p.
Assay [3] shares this test system. Kind of assay: Food and water intake in mouse model of influenza infection (7-day administration). To be noted: i.p. Day 1 to Day 7; KIS7 2.8 mg/kg/day, DCA 56 mg/kg/day; FIG. 7.
For assay [4] the test system is unchanged. Kind of assay: Body weight in mouse model of influenza infection (7-day administration). To be noted: i.p. twice per day Day 1 to Day 7; KIS7 2.8 mg/kg/day, DCA 56 mg/kg/day; FIG. 6.
Assay [5] shares this test system. Kind of assay: ATP level in mouse tissue, mouse model of influenza infection, Day 7. To be noted: Day 7 after infection; KIS7 2.8 mg/kg/day i.p.; FIG. 9.
Setting [6] is: KIS7 2.8 mg/kg/day, KIS24 1.3 mg/kg, KIS37 1.6 mg/kg.

Structures are written as SMILES.

On to `C[C@H]1COC2=C1C(=O)C(=O)c1c2ccc2c1CCCC2(C)C` [KIS37, cryptotanshinone], for which the “survival rate as of Day 14” value in assay [1] (setting [6]) is 80%. Also, the “survival rate maintained until Day 10” value in assay [1] (KIS37 1.6 mg/kg) worked out at 100%.

As for `CC1(C)CCC2=C(O1)c1ccccc1C(=O)C2=O` [KIS24, β-lapachone], the “survival rate as of Day 14” value in assay [1] (setting [6]) is 90%. Moreover, in assay [1] (KIS24 1.3 mg/kg), the “day on which death occurred” value turned out to be 6 days.

On to `O=C(O)C(Cl)Cl` [DCA, dichloroacetic acid, reference compound], for which, in assay [2], the blood glucose level result is on record as “hardly showed any improvement” and the “blood β-hydroxybutyric acid level” value is on record as “hardly showed any improvement”. Further, in assay [3], the “change in amount of food intake after influenza infection” value is recorded as “started to drastically decrease on Day 6”; the “change in amount of water intake after influenza infection” value is “clearly and markedly decreased on Day 7”. Moreover, the “body weight change after influenza infection” value in assay [4] was “could hardly suppress body weight loss”.

For `Cc1cc2c(C(C)C)c(O)c(O)c(C=O)c2c(O)c1-c1c(C)cc2c(C(C)C)c(O)c(O)c(C=O)c2c1O` [KIS7, gossypol], in assay [2] (KIS7 2.8 mg/kg/day i.p.), the “blood ATP level” value was “equivalent values to non-infected mice” and the “blood lactic acid level” value is “equivalent values to non-infected mice”. In addition, in assay [2], the blood glucose level result was “equivalent values to non-infected mice” and the “blood β-hydroxybutyric acid level” value is recorded as “equivalent values to non-infected mice”. Moreover, in assay [5], the “ATP level in heart” value is reported as “equivalent ATP levels to non-infected mice” and the “ATP level in liver” value is “equivalent ATP levels to non-infected mice”. For the same compound, in assay [1] (KIS7 2.8 mg/kg/day), the “survival rate maintained until Day 11” value amounted to 100%. For the same compound, in assay [1] (setting [6]), the “survival rate as of Day 14” value is 70%. In assay [3], the “change in amount of food intake after influenza infection” value is reported as “a decrease in the amount of food intake was suppressed” and the “change in amount of water intake after influenza infection” value is given as “a decrease in the amount of water intake was suppressed”. For the same compound, in assay [4], the “body weight change after influenza infection” value is recorded as “body weight loss was not observed at all”.

Source of the values: patent US20150335610A1, “PDK4 INHIBITOR AND USE THEREOF” (priority 2012, published 2015).
